The other results are listed elsewhere or left out.
Legend:
Experiment in all cases: glycan array binding signal (z-score within array); higher = stronger binding
Conditions in all cases: glycan notation: IUPAC condensed, linker removed
[1] = biological target: Gal(b1-4)GlcNAc(b1-3)[GlcNAc(b1-6)]Gal(b1-4)GlcNAc
How it was run: (§1)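 The Consortium for Functional Glycomics database supplied 3228 glycan arrays, of which those lacking an available protein sequence were dropped. The binding signal, a within-array Z-score, was averaged across arrays of the same protein sequence and across linkers. Negative scores can be read as non-binding.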

[2] = biological target: Gal(b1-4)GlcNAc(b1-6)Gal(b1-4)GlcNAc
How it was run: as §1

[3] = biological target: Gal(b1-4)GlcNAc(b1-6)Gal(b1-4)GlcNAc(b1-6)GalNAc
How it was run: as §1

[4] = biological target: Gal(b1-4)GlcNAc(b1-6)GalNAc
How it was run: as §1

[5] = biological target: Gal(b1-4)GlcNAc(b1-6)[Gal(b1-3)]GalNAc
How it was run: as §1

Gal3S(b1-3)GalNAc = biological target: Gal3S(b1-3)GalNAc
How it was run: as §1

Gal3S(b1-3)GlcNAc = biological target: Gal3S(b1-3)GlcNAc
How it was run: as §1

[6] = biological target: Gal3S(b1-3)[Fuc(a1-4)]GlcNAc
How it was run: as §1

Gal3S(b1-4)Glc = biological target: Gal3S(b1-4)Glc
How it was run: as §1

Gal3S(b1-4)Glc6S = biological target: Gal3S(b1-4)Glc6S
How it was run: as §1

Gal3S(b1-4)GlcNAc = biological target: Gal3S(b1-4)GlcNAc
How it was run: as §1

Gal3S(b1-4)GlcNAc6S = biological target: Gal3S(b1-4)GlcNAc6S
How it was run: as §1

[7] = biological target: Gal3S(b1-4)[Fuc(a1-3)]Glc
How it was run: as §1

Gal3S4S(b1-4)GlcNAc = biological target: Gal3S4S(b1-4)GlcNAc
How it was run: as §1

Gal3S6S(b1-4)GlcNAc = biological target: Gal3S6S(b1-4)GlcNAc
How it was run: as §1

Gal3S6S(b1-4)GlcNAc6S = biological target: Gal3S6S(b1-4)GlcNAc6S
How it was run: as §1

Gal4S(b1-4)GlcNAc = biological target: Gal4S(b1-4)GlcNAc
How it was run: as §1

Gal4S6S(b1-4)GlcNAc = biological target: Gal4S6S(b1-4)GlcNAc
How it was run: as §1

Gal6S(b1-4)Glc = biological target: Gal6S(b1-4)Glc
How it was run: as §1

Gal6S(b1-4)Glc6S = biological target: Gal6S(b1-4)Glc6S
How it was run: as §1

Gal6S(b1-4)GlcNAc = biological target: Gal6S(b1-4)GlcNAc
How it was run: as §1

Gal6S(b1-4)GlcNAc6S = biological target: Gal6S(b1-4)GlcNAc6S
How it was run: as §1

GalNAc(a1-3)Gal = biological target: GalNAc(a1-3)Gal
How it was run: as §1

GalNAc(a1-3)GalNAc = biological target: GalNAc(a1-3)GalNAc
How it was run: as §1

GalNAc(b1-3)Gal = biological target: GalNAc(b1-3)Gal
How it was run: as §1

[8] = biological target: GalNAc(b1-3)Gal(a1-4)Gal(b1-4)GlcNAc
How it was run: as §1

[9] = biological target: GalNAc(b1-3)Gal(a1-4)Gal(b1-4)GlcNAc(b1-3)Gal(b1-4)Glc
How it was run: as §1

GalNAc(b1-3)GalNAc = biological target: GalNAc(b1-3)GalNAc
How it was run: as §1

GalNAc(b1-4)GlcNAc = biological target: GalNAc(b1-4)GlcNAc
How it was run: as §1

[10] = biological target: GalNAc(b1-4)GlcNAc(b1-2)Man(a1-3)[GalNAc(b1-4)GlcNAc(b1-2)Man(a1-6)]Man(b1-4)GlcNAc(b1-4)GlcNAc
How it was run: as §1

Glc(a1-4)Glc = biological target: Glc(a1-4)Glc
How it was run: as §1

Glc(a1-6)Glc(a1-6)Glc = biological target: Glc(a1-6)Glc(a1-6)Glc
How it was run: as §1

Glc(b1-4)Glc = biological target: Glc(b1-4)Glc
How it was run: as §1

Glc(b1-6)Glc = biological target: Glc(b1-6)Glc
How it was run: as §1

GlcA(b1-3)Gal = biological target: GlcA(b1-3)Gal
How it was run: as §1

GlcA(b1-3)GlcNAc = biological target: GlcA(b1-3)GlcNAc
How it was run: as §1

GlcA(b1-6)Gal = biological target: GlcA(b1-6)Gal
How it was run: as §1

[11] = biological target: GlcNAc(a1-3)Gal(b1-4)GlcNAc
How it was run: as §1

[12] = biological target: GlcNAc(a1-4)Gal(b1-3)GlcNAc
How it was run: as §1

[13] = biological target: GlcNAc(a1-4)Gal(b1-4)GalNAc
How it was run: as §1

[14] = biological target: GlcNAc(a1-4)Gal(b1-4)GlcNAc
How it was run: as §1

[15] = biological target: GlcNAc(a1-4)Gal(b1-4)GlcNAc(b1-3)Gal(b1-4)Glc
How it was run: as §1

[16] = biological target: GlcNAc(a1-4)Gal(b1-4)GlcNAc(b1-3)Gal(b1-4)GlcNAc
How it was run: as §1

B1: DGL (Dioclea grandiflora), P08902 (protein)
chain: ADTIVAVELDSYPNTDIGDPNYPHIGIDIKSIRSKSTARWNMQTGKVGTVHISYNSVAKRLSAVVSYSGSSSTTVSYDVDLNNVLPEWVRVGLSATTGLYKETNTILSWSFTSKLKTNSIADENSLHFSFHKFSQNPKDLILQGDAFTDSDGNLELTKVSSSGDPQGNSVGRALFYAPVHIWESSAVVASFDATFTFLIKSPDREPADGITFFIANTDTSIPSGSGGRLLGLFPDAN
[1]
  glycan array binding signal (z-score): -0.173
[2]
  glycan array binding signal (z-score): -0.173
[3]
  glycan array binding signal (z-score): -0.159
[4]
  glycan array binding signal (z-score): -0.162
[5]
  glycan array binding signal (z-score): -0.176
Gal3S(b1-3)GalNAc
  glycan array binding signal (z-score): -0.18
Gal3S(b1-3)GlcNAc
  glycan array binding signal (z-score): -0.176
[6]
  glycan array binding signal (z-score): -0.182
Gal3S(b1-4)Glc
  glycan array binding signal (z-score): -0.171
Gal3S(b1-4)Glc6S
  glycan array binding signal (z-score): -0.18
Gal3S(b1-4)GlcNAc
  glycan array binding signal (z-score): -0.169
Gal3S(b1-4)GlcNAc6S
  glycan array binding signal (z-score): -0.17
[7]
  glycan array binding signal (z-score): -0.169
Gal3S4S(b1-4)GlcNAc
  glycan array binding signal (z-score): -0.179
Gal3S6S(b1-4)GlcNAc
  glycan array binding signal (z-score): -0.167
Gal3S6S(b1-4)GlcNAc6S
  glycan array binding signal (z-score): -0.159
Gal4S(b1-4)GlcNAc
  glycan array binding signal (z-score): -0.17
Gal4S6S(b1-4)GlcNAc
  glycan array binding signal (z-score): -0.183
Gal6S(b1-4)Glc
  glycan array binding signal (z-score): -0.174
Gal6S(b1-4)Glc6S
  glycan array binding signal (z-score): -0.152
Gal6S(b1-4)GlcNAc
  glycan array binding signal (z-score): -0.178
Gal6S(b1-4)GlcNAc6S
  glycan array binding signal (z-score): -0.169
GalNAc(a1-3)Gal
  glycan array binding signal (z-score): -0.176
GalNAc(a1-3)GalNAc
  glycan array binding signal (z-score): -0.173
GalNAc(b1-3)Gal
  glycan array binding signal (z-score): -0.173
[8]
  glycan array binding signal (z-score): -0.171
[9]
  glycan array binding signal (z-score): -0.179
GalNAc(b1-3)GalNAc
  glycan array binding signal (z-score): -0.179
GalNAc(b1-4)GlcNAc
  glycan array binding signal (z-score): -0.169
[10]
  glycan array binding signal (z-score): -0.179
Glc(a1-4)Glc
  glycan array binding signal (z-score): -0.163
Glc(a1-6)Glc(a1-6)Glc
  glycan array binding signal (z-score): -0.179
Glc(b1-4)Glc
  glycan array binding signal (z-score): -0.17
Glc(b1-6)Glc
  glycan array binding signal (z-score): -0.169
GlcA(b1-3)Gal
  glycan array binding signal (z-score): -0.181
GlcA(b1-3)GlcNAc
  glycan array binding signal (z-score): -0.173
GlcA(b1-6)Gal
  glycan array binding signal (z-score): -0.182
[11]
  glycan array binding signal (z-score): -0.175
[12]
  glycan array binding signal (z-score): -0.153
[13]
  glycan array binding signal (z-score): -0.148
[14]
  glycan array binding signal (z-score): -0.176
[15]
  glycan array binding signal (z-score): -0.176
[16]
  glycan array binding signal (z-score): -0.156

From the supplement of paper PMC8728848
